# Assay results published in paper PMC4336329 (PLoS ONE, 2015).
# Out of some 310,000 compounds screened, about 14,000 (4.5%) showed an effect of 50% or more. Effects have a minus sign here. The list shows a part of the results.
# Biological target: human ether-à-go-go-related gene (hERG) potassium channel (human, UniProt Q12809)
# Experiment: primary screen, population patch clamp on CHO cells stably expressing hERG
# 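Also: peak tail current of the secondary pulse compared with the same well before compound.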
# Sequence of human ether-à-go-go-related gene (hERG) potassium channel (Q12809 whole entry, looked up): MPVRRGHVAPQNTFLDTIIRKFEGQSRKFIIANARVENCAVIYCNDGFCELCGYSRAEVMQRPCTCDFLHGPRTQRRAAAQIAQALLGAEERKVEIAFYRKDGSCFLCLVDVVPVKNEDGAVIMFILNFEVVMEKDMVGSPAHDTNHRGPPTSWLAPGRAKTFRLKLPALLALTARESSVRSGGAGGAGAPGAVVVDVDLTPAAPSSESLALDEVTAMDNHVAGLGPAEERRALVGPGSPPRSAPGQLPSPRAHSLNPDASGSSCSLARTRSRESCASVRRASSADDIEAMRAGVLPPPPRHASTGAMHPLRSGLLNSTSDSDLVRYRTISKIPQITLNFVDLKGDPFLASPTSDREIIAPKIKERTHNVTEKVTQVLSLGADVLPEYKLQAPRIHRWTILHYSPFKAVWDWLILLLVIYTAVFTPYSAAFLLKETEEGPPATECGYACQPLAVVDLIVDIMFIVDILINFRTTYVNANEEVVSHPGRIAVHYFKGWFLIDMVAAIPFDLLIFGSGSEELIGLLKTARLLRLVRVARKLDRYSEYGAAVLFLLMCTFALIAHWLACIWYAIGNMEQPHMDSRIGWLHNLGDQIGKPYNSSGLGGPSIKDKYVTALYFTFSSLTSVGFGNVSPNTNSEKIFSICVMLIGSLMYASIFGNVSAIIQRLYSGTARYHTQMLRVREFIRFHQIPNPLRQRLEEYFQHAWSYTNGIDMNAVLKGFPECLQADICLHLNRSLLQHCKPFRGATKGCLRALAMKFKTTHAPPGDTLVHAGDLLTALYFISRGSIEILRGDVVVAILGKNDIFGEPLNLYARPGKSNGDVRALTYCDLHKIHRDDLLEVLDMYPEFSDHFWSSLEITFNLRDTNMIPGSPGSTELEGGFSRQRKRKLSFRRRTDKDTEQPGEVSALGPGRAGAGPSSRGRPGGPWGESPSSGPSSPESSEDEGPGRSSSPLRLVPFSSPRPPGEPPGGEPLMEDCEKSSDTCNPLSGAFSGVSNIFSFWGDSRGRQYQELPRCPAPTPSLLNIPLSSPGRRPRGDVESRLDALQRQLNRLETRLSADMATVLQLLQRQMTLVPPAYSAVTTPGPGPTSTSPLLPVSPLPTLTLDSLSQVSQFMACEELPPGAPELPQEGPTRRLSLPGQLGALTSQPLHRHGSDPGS
row,SMILES,"hERG current change (%, negative = inhibition) at 10uM [%]"
1,CC(NC(=O)[C@H](C)NC(=O)C1CC(=O)N(c2ccc3c(c2)OCO3)C1)c1ccccc1 (some centres unmarked),9.33
2,COc1ccc(NC(=O)c2cccc(NC(=O)C3C4CC5OC(=O)C3C5C4)c2)c(OC)c1 (centres unmarked),10.8
3,COc1ccc(C(=O)C2CCCN(Cc3cnc(N4CCOCC4)s3)C2)c(OC)c1 (centres unmarked),-46.9
4,O=C(Cc1ccc(Cl)cc1)Nc1ccc(NC(=O)c2ccccc2)cc1,36.8
5,COc1ccc(NC(=O)C2CC(c3cccc(Br)c3)=NO2)cc1OC (centres unmarked),17.9
6,Cc1ccc(N2CCN(CC(O)COc3cccc4ccccc34)CC2)cc1 (centres unmarked),-25.1
7,C=CCNC(=O)[C@H]1N2C(=O)c3ccccc3C2SC1(C)C (some centres unmarked),21.1
8,C=CCN(C(=O)CNC(=O)c1ccco1)C(C(=O)NC1CCCCC1)c1cccnc1 (centres unmarked),4.68
9,COc1ccc(S(=O)(=O)N2CCc3ccccc32)cc1C(=O)OCC(=O)c1c(N)n(C)c(=O)n(C)c1=O,21.1
10,CCOc1ccccc1N(CC(=O)Nc1ccc(S(=O)(=O)N2CCOCC2)cc1)S(=O)(=O)c1ccccc1,14.3
11,CN1CCN(C(=O)c2cccn(Cc3ccc(C(F)(F)F)cc3)c2=O)CC1,20.1
12,COCCN1CCN(c2c(C)c(C)nc3cc(-c4cccc(OC)c4)nn23)CC1,-15.6
13,CS(=O)(=O)NCCOc1ccc(S(=O)(=O)N2CCCc3ccccc32)cc1,-43
14,CC(C)NCC(O)COCCOc1ccc(Cl)cc1.Cl (centres unmarked),-10.1
15,COc1ccc2cc3cc(C(=O)NCCCN4CCc5ccccc5C4)sc3nc2c1,-32.7
16,O=C(Cn1nnc(-c2ccccc2F)n1)N1CCCCC1,13.6
17,NC(=O)[C@@H]1CC2(CC(c3cccc(NC(=O)[C@H]4CCC(=O)N4)c3)=NO2)CN1C(=O)COc1ccc(Cl)cc1 (some centres unmarked),21.9
18,Cc1ccc(NC(=O)CC(O)(C(F)(F)F)C(F)(F)F)cc1,11.5
19,COc1cccc(/C=N/NC(=O)c2ccccc2NC(=O)c2ccco2)c1OC,-5.89
20,C/C(Cc1ccccc1)=N/NC(=O)CNC(=O)C(c1ccccc1)c1ccccc1,10.4
21,CCOC(=O)N1CCN(Cc2nc(N)nc(Nc3ccc(C)cc3)n2)CC1,-57.2
22,CCOc1ccc(C(=O)C2CCN(C(=O)c3ccccc3C(=O)O)CC2)cc1,-5.42

row,SMILES,"hERG current change (%, negative = inhibition) at 10uM [%]"
1,COc1ccc(C(CC(=O)O)NC(=O)C(c2ccccc2)c2ccccc2)cc1 (centres unmarked),22.6
2,COc1ccc(S(=O)(=O)N2CCCC2CNC(=O)C(=O)NCc2ccccc2)cc1 (centres unmarked),-8.87
3,COc1ccccc1CN(C)CC(=O)NC1CCCc2ccccc21 (centres unmarked),-22.1
4,COCCCNC(=O)[C@H]1N2C(=O)c3ccccc3C2SC1(C)C (some centres unmarked),15.3
5,O=C(CCN1C(=O)c2cccc3cccc(c23)C1=O)NCC1CCCO1 (centres unmarked),8.96
6,COC(=O)c1sc(NC(=S)NC(=O)c2ccc(F)cc2)nc1C,19.1
7,O=C1COc2ccc(S(=O)(=O)CCC(=O)N3CCN(c4ccccc4)CC3)cc2N1,-13.1
8,Cc1cccc(NS(=O)(=O)c2ccc(C(=O)N3CCCC3)cc2)c1C,-2.28
9,CCOCCCNC(=O)c1ccc(Br)cc1,14.8
10,Cc1noc(C)c1C(=O)Nc1nc(-c2ccc(F)cc2)cs1,0.197
11,CC(=O)N1CCN(C(=O)c2cc(C)nc3ccccc23)CC1,31.1
12,Cc1ccccc1CNC(=O)Cn1cnc(S(=O)(=O)N2CCCC2)c1,6.06
13,COc1cc(/C=N/NC(=O)c2cc(-c3ccco3)nc3ccccc23)cc(OC)c1O,4.8
14,COc1cc(CNC(C)(C)CO)cc(Br)c1OCc1ccccc1.Cl,-17.2
15,CC(=O)c1cc2c(cc1NS(=O)(=O)c1ccc3c(c1)OCCO3)OCO2,-7.12
16,O=C(COc1cccc(Br)c1)N/N=C/C(=O)c1ccccc1,-20.7
17,COc1cccc(CNC(=O)C2CCN(S(=O)(=O)c3ccc4c(c3)NC(=O)CO4)CC2)c1,5.08
18,COc1ccc(Cn2c(N)c(C(=O)NCc3ccco3)c3nc4ccccc4nc32)cc1,10.6
19,COc1ccc(N/C(=N\c2nc(C)cc(C)n2)NC(=O)C(C)C)cc1OC,13.6
20,CCCCCCn1nc(C(=O)OCC(=O)NC2CCS(=O)(=O)C2)c2ccccc2c1=O (centres unmarked),-40.2
21,CC(C)NC(=O)NC(=O)COC(=O)c1c2c(nc3ccccc13)CCC2,-4.56
22,CC1(C)CC(=O)C(C=NCCN2CCN(C3CC(=O)N(c4cccc(Br)c4)C3=O)CC2)=C(O)C1 (centres unmarked),-7

row,SMILES,"hERG current change (%, negative = inhibition) at 10uM [%]"
1,CC(C)(C)NC(=O)C(=O)NNC(=O)c1cccc(F)c1,18.1
2,COc1cccc(CNC(=O)Cn2cc3c(n2)CCCCC3)c1,-0.591
3,NC(=O)CN1CCN(S(=O)(=O)c2ccc(Cl)cc2)CC1,9.23
4,COc1ccc(-c2noc(CCC(=O)NCc3ccco3)n2)cc1,5.33
5,COC(=O)c1sccc1OCc1cccc(OC)c1,15.3
6,Clc1ccc2noc(-c3ccccc3)c2c1,7.67
7,CC1CC(C)CN(CCCNC(=O)Cn2cccc2C(=O)c2ccccc2)C1 (centres unmarked),-63.1
8,Cc1c(NC(=O)C2CCCCN2S(=O)(=O)c2ccc(Cl)cc2)c(=O)n(-c2ccccc2)n1C (centres unmarked),2.09
9,COc1cccc(OC)c1C(=O)NC(=S)NCc1cccnc1,22.2
10,CCn1c(=O)cc(C(=O)OC)sc1=Nc1ccc(F)c(F)c1,-21.8
11,COc1ccc(NC(=O)CCC(=O)Nc2ccc3nc(N4CCOCC4)cc(C)c3c2)c(OC)c1,16.5
12,Cc1cccc(OCC(=O)NC(Cc2ccccc2)C(=O)O)c1 (centres unmarked),11.3
13,O=C(CCCCn1c(=O)c2ccccc2n(Cc2ccc(Cl)cc2)c1=O)NCc1ccco1,-11.5
14,COc1ccccc1C1=NOC(COC(=O)c2ccc(Br)cc2)C1 (centres unmarked),9.12
15,CCC(=O)N1CCc2cc(S(=O)(=O)CCC(=O)N3CCN(c4ccc(Cl)cc4)CC3)ccc21,-8.86
16,CC(=O)Nc1ccc(NC(=O)CSc2nnc(-c3ccco3)n2Cc2ccco2)cc1,-1.79
17,CN(C)c1ccc(/C=N/NC(=O)c2sccc2-n2cccc2)cc1,12.2
18,CC1CCCN(C(=S)NCc2ccccc2)C1 (centres unmarked),8.32
19,Cc1cccc(SCC(=O)Nc2ccccc2[N+](=O)[O-])c1,3.67
20,CCC1CCCCN1CCCNC(=O)C1CC(=O)N(CCc2ccccc2)C1 (centres unmarked),24
21,O=C(Nc1cc(S(=O)(=O)N2CCOCC2)ccc1Cl)C(=O)c1c(-c2ccccc2)cc2ccccn12,-2.22
22,Cc1cc(NC(=O)C(C)SCC(=O)OCC(=O)N(Cc2ccccc2)C(C)(C)C)no1 (centres unmarked),-35.4

row,SMILES,"hERG current change (%, negative = inhibition) at 10uM [%]"
1,Nc1cccc(-c2nc3ccc(C(=O)c4ccccc4)cc3[nH]2)c1,-1.68
2,O=C1/C(=N\O)Cc2ccccc21,1.21
3,O=C(Oc1cccc(C(=S)N2CCOCC2)c1)c1cc([N+](=O)[O-])cc([N+](=O)[O-])c1,-8.63
4,C=CCNC(=O)C(=O)N/N=C/c1cccc(Br)c1,5.66
5,Cc1cc(C(=O)COC(=O)C2=NN(c3ccccc3)C(=O)CC2)c(C)n1CC(F)(F)F,0.186
6,CC1CCN(c2nc3ccccn3c(=O)c2C=O)CC1,10.9
7,O=C(NCc1ccccc1)C(c1ccco1)N(C(=O)c1csnn1)C1CC1 (centres unmarked),2.1
8,O=C(COc1ccc(Cl)cc1Cl)N/N=C/c1cccnc1,-11.9
9,NC(=O)c1nsc(C(=O)N(Cc2cccnc2)C(C(=O)NC2CCCC2)c2ccc(F)cc2)c1N (centres unmarked),3.63
10,O=C(CSc1ncccc1C(=O)O)Nc1ccc2c(c1)OCCO2,0.463
11,CS(=O)(=O)N(CC(N)=O)c1ccc(F)c(Cl)c1,5.98
12,Cc1ccc(C(=O)N2CCC(C(=O)c3ccc(Cl)cc3)CC2)cc1,-68.4
13,CC1(C)CC(=O)C(N=Nc2ccc(S(=O)(=O)N3CCOCC3)cc2)=C(O)C1,25.4
14,CC1(C)CC2(CCO1)C(Nc1ccccc1)=NC(=S)N2c1ccccc1 (centres unmarked),-6.5
15,O=c1cc(N2CCCCC2)c(-c2ccccc2)nn1Cc1ccccc1Cl,-3.92
16,Cc1cccc(NS(=O)(=O)c2nnc(NC(=O)CC(C)C)s2)c1,15.5
17,COc1cccc(OCCSc2nc(C)c(Cc3ccccc3)c(=O)[nH]2)c1,15.5
18,COCC(=O)N(C)c1nnc(-c2cnc(C)cn2)s1,6.68
19,Cc1cc(C)c(C)c(S(=O)(=O)N2CCN(C)CC2)c1C,10.9
20,CCCCNC(=S)N(CCN(CC)CC)Cc1cc2cc3c(cc2[nH]c1=O)OCO3,-33.3
